PubChem BioAssay AID2451 (National Center for Advancing Translational Sciences (NCATS), 2010)
“And” between values parts separate entries of the source, which are not always exact repeats. Equal values may be shown once. In all, about 290,000 compounds went through this assay and about 2,100 (0.72%) were called active. Inconclusive means that the source gave no clear call. Such entries were picked first, then a sample of the others. The call rests on the fitted dose curve; in most records, active means well fitted inhibition curve with a large enough effect; inconclusive means small, poorly fitted or top-dose-only effect, or effect the other way; inactive means flat fitted curve, though single readings scatter. Potencies of inconclusive entries are doubtful fits and often do not repeat. The source holds several records for some structures; these can differ, active in one and inactive in another.
Further: nearly all actives have a fitted effect of over 55% in size.
Potency means the concentration at half of the fitted maximal effect; tags describe the fitted curve by direction and shape.

What follows are molecules tested against Fructose-bisphosphate aldolase (Giardia intestinalis (strain ATCC 50803 / WB clone C6)) (UniProt A8B2U2) (assay: qHTS Assay for Inhibitors of Fructose-1,6-bisphosphate Aldolase from Giardia Lamblia). Conditions: purified Giardia FBPA; series mostly up to 59.6 µM.
Sequence of UniProt A8B2U2 (A8B2U2 whole entry, looked up): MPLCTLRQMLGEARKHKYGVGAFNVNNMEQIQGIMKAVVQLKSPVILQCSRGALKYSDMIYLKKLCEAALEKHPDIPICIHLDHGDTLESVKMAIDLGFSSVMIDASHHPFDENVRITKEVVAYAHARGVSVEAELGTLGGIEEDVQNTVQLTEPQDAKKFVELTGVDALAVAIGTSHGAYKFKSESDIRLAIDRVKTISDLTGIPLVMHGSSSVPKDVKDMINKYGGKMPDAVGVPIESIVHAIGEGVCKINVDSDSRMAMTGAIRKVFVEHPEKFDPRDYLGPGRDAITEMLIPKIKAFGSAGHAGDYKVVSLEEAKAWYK
How it was run: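 Giardia FBPA (40 nM reagent) was preincubated 10 min at RT with compound (up to 57.5 uM final), then substrate plus GAPDH/TPI/NAD/arsenate coupling system with diaphorase/resazurin was added; resorufin fluorescence (525/598 nm) was read after 20 min.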
For CN1CCN(C(=S)NC(=O)c2ccc(Cl)cc2)CC1, the Potency was inconclusive: 17.7 µM [inhibitor, partial curve].
O=C(CCSc1ccccc1)Nc1ccc(S(=O)(=O)N2CCOCC2)cc1 was tested, and the Potency was “inactive”.
Cn1c(SCC(=O)Nc2ccc3c(c2)oc2ccccc23)nnc1-c1ccccc1 was tested, and the Potency was “inactive”.
O=C(CNc1cccc2ccccc12)N/N=C/c1ccc([N+](=O)[O-])o1 was tested, and the Potency was inconclusive: 5 µM [inhibitor, full curve].
CCOC(=O)NC(=S)c1ccc[nH]1 was tested, and the Potency was inconclusive: 6.29 µM [inhibitor, partial curve].
For O=C(/C=C/c1ccccc1)NCCSCc1ccccc1Cl, the Potency was “inactive”.
In the case of O=C(CSc1ccc(Cl)cc1)c1ccco1, the Potency is reported as inconclusive: 7.92 µM [inhibitor, partial curve].
With CCOc1cc(/C=N/Nc2ncnc(Cl)c2N)ccc1O the Potency was inconclusive: 17.7 µM [inhibitor, partial curve].
In the case of O=C(Nc1nnc(C2=COCCO2)o1)c1ccc(F)cc1, the Potency is reported as active: 31.6 µM.
For Cn1c2c(c(=O)n(C)c1=O)C(c1ccccc1OC(F)F)C1=C(CCCC1=O)N2 (stereo not drawn), the Potency was “inactive”.
For COc1ccc(CCNC(=O)c2cc3c(=O)n4cccc(C)c4nc3n(CC3CCCO3)c2=N)cc1 (stereo not drawn), the Potency was “inactive”.
For COc1ccc(CNCCc2ccc3c(c2)OCO3)c(OC)c1OC, the Potency was inconclusive: 15.8 µM [inhibitor, partial curve].
For O=c1c(F)cn(C2CCCO2)c(=O)n1Cc1c(F)cccc1Cl (stereo not drawn), the Potency was inconclusive: 44.7 µM [activator, partial curve].
With CCc1nnc(N2C(=N)SCC2=O)s1 the Potency was inconclusive: 17.7 µM [inhibitor, partial curve].
Cc1nn(Cc2c(F)c(F)c(F)c(F)c2F)c(C)c1NC(=O)c1cccc(COc2ccccc2Cl)c1 was tested, and the Potency was “inactive”.
CCCN(CCO)C1CCN(CCc2ccccc2)CC1 was tested, and the Potency was inconclusive: 35.5 µM [inhibitor, single point].
With Cc1ccc(C)c(NS(=O)(=O)c2ccc3c(c2)Cc2cc(S(=O)(=O)Nc4cc(C)ccc4C)ccc2-3)c1 the Potency was “inactive”.
In the case of COC(=O)CCCC1=CC2=CC(=O)C(C)(OC(=O)c3cccs3)C(=O)C2=CN1Cc1ccco1 (stereo not drawn), the Potency is reported as inconclusive: 2.23 µM [inhibitor, full curve] and inconclusive: 1.77 µM [inhibitor, single point].
Cc1c(Cl)cccc1Nc1nc(N)nc(CN2CCc3ccccc3C2)n1 was tested, and the Potency was “inactive”.
For COC(=O)CN1C(=O)S/C(=C/c2ccc(N3CCCCC3)o2)C1=O, the Potency was inconclusive: 7.92 µM [inhibitor, partial curve].
For C=C(C)COc1ccc(-c2[nH]ncc2Oc2ccccc2OC)c(O)c1, the Potency was “inactive”.
With O=C(CSc1ccc(-c2ccco2)nn1)NCc1ccc(Cl)cc1 the Potency was “inactive”.
For CCNC(=S)N1CCN(CC)CC1, the Potency was inconclusive: 19.9 µM [inhibitor, partial curve].
For CC(C(=O)N=c1sc2ccccc2n1C)N1C(=O)C2CC=CCC2C1=O (stereo not drawn), the Potency was inconclusive: 5 µM [activator, partial curve].
For Cc1cc(C)n2nc3nc(N4CCCCC4)nc(-c4ccco4)c3c2n1, the Potency was inconclusive: 14.1 µM [inhibitor, partial curve].
For O=C(N/N=C/c1ccncc1)c1nc2ccccc2c(=O)[nH]1, the Potency was active: 11.2 µM.
With Cn1c(=O)oc2cc(S(=O)(=O)NCc3cccnc3)ccc21 the Potency was inconclusive: 31.5 µM [inhibitor, single point].
With COc1ccc(/C(O)=C2/C(=O)C(=O)N(Cc3ccco3)C2c2cccs2)cc1 (stereo not drawn) the Potency was inconclusive: 28.1 µM [inhibitor, single point].
For CCN(CC)c1ccc(/C=N/Nc2ccc(C)cc2)c(O)c1, the Potency was inconclusive: 14.1 µM [inhibitor, partial curve].
Cc1ccc(/C=N/NC(=O)c2cccc(S(=O)(=O)Nc3ccccc3Cl)c2)s1 was tested, and the Potency was inconclusive: 19.9 µM [inhibitor, partial curve].
In the case of CC1CC2(CCCC2)Nc2ccc(F)cc21 (stereo not drawn), the Potency is reported as inconclusive: 31.6 µM [inhibitor, single point].
In the case of CCSc1nc(C)c(C(C)=O)cc1C#N, the Potency is reported as “inactive”.
In the case of CCn1cc(C(=O)O)c(=O)c2cc(F)c(N3CCN(C(=S)NC(=O)c4cccc(F)c4)CC3)cc21, the Potency is reported as inconclusive: 15.8 µM [inhibitor, partial curve].
COCCCOc1ccnc(CS(=O)c2nc3ccccc3[nH]2)c1C (stereo not drawn) was tested, and the Potency was active: 2 µM.
For O=C(CSc1nc(-c2ccccc2)cc(=O)[nH]1)Nc1ccc(F)c(F)c1, the Potency was inconclusive: 35.5 µM [inhibitor, partial curve].
CCOC(=O)c1ccc(NC(=O)c2cc(S(=O)(=O)N3CCOCC3)ccc2O)cc1 was tested, and the Potency was inconclusive: 17.7 µM [activator, single point].
For CSc1cnn(-c2ccccc2)c(=O)c1SC, the Potency was “inactive”.
COc1cccc(CNCc2ccco2)c1O was tested, and the Potency was “inactive”.
For CCOc1ccc(NC(=O)Cc2cccc3ccccc23)c([N+](=O)[O-])c1, the Potency was “inactive”.
For CCN(Cc1ccccc1)S(=O)(=O)c1ccc(F)cc1, the Potency was “inactive”.
For COc1ccc(OC)c(Nc2nc(-c3sc(N)nc3C)cs2)c1, the Potency was inconclusive: 3.54 µM [inhibitor, full curve].
For CCOC(=O)N1CCN(S(=O)(=O)c2ccc(C(=O)Nc3nnc(CSC)o3)cc2)CC1, the Potency was inconclusive: 22.3 µM [inhibitor, single point].
In the case of O=C(c1csc(Nc2cccc3ccccc23)n1)N1CCCC1, the Potency is reported as inconclusive: 22.3 µM [inhibitor, single point].
O=c1c2ccccc2nc(-c2ccccc2Cl)n1-c1ccc(O)cc1 was tested, and the Potency was “inactive”.
For CC1CCN(S(=O)(=O)c2nnc(NC(=O)COc3ccccc3F)s2)CC1, the Potency was inconclusive: 39.8 µM [inhibitor, single point].
For CCOC(=O)N1CCC(NC(=O)c2oc3c(c2C)-c2[nH]ncc2CC3)CC1, the Potency was inconclusive: 7.92 µM [inhibitor, partial curve].
For CC(C)CN1C=C2C(=O)C(C)(OC(=O)CCc3ccccc3)C(=O)C=C2C=C1c1ccc(C#N)cc1 (stereo not drawn), the Potency was inconclusive: 500 nM [inhibitor, full curve] and inconclusive: 1.26 µM [inhibitor, single point].
With S=C(Nc1cccc(Cl)c1)N(CCCN1CCCC1)Cc1cccn1Cc1ccc(Cl)cc1 the Potency was “inactive”.
CC(=O)Nc1ccc(S(=O)(=O)Nc2nc3ccccc3nc2Nc2ccc(O)c(C(=O)O)c2)cc1 was tested, and the Potency was inconclusive: 39.8 µM [inhibitor, single point].
With COc1ccc(C23CC4CC(CC(C4)C2)C3)cc1C(=O)NCCN(C)C the Potency was inconclusive: 20 µM [inhibitor, single point].
In the case of COc1ccc(CCN(C)C(=O)C2CCN(Cc3cccc(OC)c3OC)CC2)cc1OC, the Potency is reported as inconclusive: 12.6 µM [inhibitor, partial curve].
With Cc1cccc(-n2c(N)c(C(=O)N3CCN(C)CC3)sc2=S)c1 the Potency was inconclusive: 17.7 µM [inhibitor, single point].
CCOC(=O)CSc1nc2sc3c(c2c(=O)n1-c1ccccc1)CCN(C(C)C)C3 was tested, and the Potency was “inactive”.
Cc1nnsc1-c1c(C(=O)N2CCOCC2)c(C)nn1-c1ccc(Cl)cc1 was tested, and the Potency was “inactive”.
With Cn1nnnc1SCC(=O)N1CCc2ccccc21 the Potency was “inactive”.
CN(CCOCCOc1ccc(F)cc1)Cc1ccccc1 was tested, and the Potency was inconclusive: 25.1 µM [inhibitor, partial curve].
For Cc1cccc(Nc2cc(C)nc3ccccc23)c1, the Potency was inconclusive: 14.1 µM [inhibitor, partial curve].
COc1ccc(CN2CCNC(=O)C2CC(=O)N(C)Cc2ccncn2)c(OC)c1 (stereo not drawn) was tested, and the Potency was inconclusive: 44.6 µM [inhibitor, single point].
Cc1cc(C(=O)N/N=C/c2cccc([N+](=O)[O-])c2)c2ccccc2n1 was tested, and the Potency was “inactive”.
In the case of CCN(CC)S(=O)(=O)c1ccc(C(=O)Nc2nnc(COC)o2)cc1, the Potency is reported as active: 17.7 µM.
For Fc1ccc(OCCCCCn2ccnc2)cc1, the Potency was inconclusive: 20 µM [inhibitor, partial curve].
For Cn1c(CCNC(=O)c2ccco2)nc2cc(NC(=O)C3CCCCC3)ccc21, the Potency was “inactive”.
With O=C(Nc1nnc(C2=COCCO2)o1)c1ccc(Cc2ccccc2)cc1 the Potency was active: 17.7 µM.
C=CCn1c(=S)[nH]c2cc(C(=O)Nc3ccc(F)cc3)ccc2c1=O was tested, and the Potency was inconclusive: 15.8 µM [inhibitor, partial curve].
In the case of O=C(Nc1cc2c(cc1Br)OCCCO2)c1ccccc1, the Potency is reported as “inactive”.
In the case of CC(=O)c1ccc(NC(=O)CNC2CCCCC2)cc1, the Potency is reported as inconclusive: 12.6 µM [inhibitor, partial curve].
CC(=O)Oc1cc2c3c(c1)/C(=C1/SC(=S)NC1=O)C(=O)N3C(C)(C)C=C2C was tested, and the Potency was inconclusive: 19.9 µM [inhibitor, partial curve].
For COc1ccccc1C1/C(=C(/O)c2ccccc2)C(=O)C(=O)N1CCO (stereo not drawn), the Potency was inconclusive: 15.8 µM [inhibitor, single point].
In the case of NC(=S)c1ccc(C(N)=S)o1, the Potency is reported as inconclusive: 17.8 µM [inhibitor, partial curve].
CNCCOc1ccccc1C(C)(C)C was tested, and the Potency was inconclusive: 15.8 µM [inhibitor, partial curve].
In the case of Cc1ccccc1CN(C)CC(=O)Nc1ccccc1-c1ccccc1, the Potency is reported as “inactive”.
For Nc1cc(Cl)c2nonc2c1[N+](=O)[O-], the Potency was inconclusive: 2.23 µM [inhibitor, full curve].
With Cc1cc(C)n(CCCNCC(O)c2ccccc2)n1 (stereo not drawn) the Potency was inconclusive: 19.9 µM [inhibitor, partial curve].
